Experimental data: the supplement of paper PMC8813932
Structures can show the parent of a compound that is named as a salt. ± gives the standard deviation of the averaged measurements. The list shows a part of the results. Repeats are few or missing, and single values can be far off.

Legend:
Assay in all cases: log2 surviving fraction relative to plate median (drug vs vehicle, or drug+dl922-947 vs dl922-947 alone); ovarian cancer lines: OVCAR4 is platinum-sensitive while Ov4Cis resists cisplatin and Ov4Carbo carboplatin; higher = more cell survival
Conditions in all cases: compound concentration: 10 uM, 192 h
OVCAR4 = test system: OVCAR4
Ov4Carbo = test system: Ov4Carbo
Ov4Cis = test system: Ov4Cis
[1] = dl922-947 oncolytic adenovirus co-treatment: MOI 10
[2] = dl922-947 oncolytic adenovirus co-treatment: none

SMILES | log2 surviving fraction (OVCAR4; [1]) | log2 surviving fraction (OVCAR4; [2]) | log2 surviving fraction (Ov4Carbo; [1]) | log2 surviving fraction (Ov4Carbo; [2]) | log2 surviving fraction (Ov4Cis; [1]) | log2 surviving fraction (Ov4Cis; [2])
CN1C[C@@H]2C[C@H]1CN2c1cc2c(cc1F)c(=O)c(C(=O)O)cn2C1CC1 [Danofloxacin Mesylate] | -0.289 ± 0.21 | 0.96 ± 0.48 | -1.56 | -1.69 | 0.0401 | -1.6
COc1ccccc1OCC(O)CN1CCN(CC(=O)Nc2c(C)cccc2C)CC1 (configuration not stated) [Ranolazine dihydrochloride] | 0.471 ± 0.38 | 0.00409 ± 1.4 | -1.74 | 2.32 | 0.389 | 1.08
c1ccc(C2CN3CCSC3=N2)cc1 (configuration not stated) [Tetramisole HCl] | 0.331 ± 0.47 | 0.106 ± 1.6 | 0.534 | -0.222 | 0.734 | -2.12
CCCCC(=O)O[C@H]1CC[C@H]2[C@@H]3CCc4cc(O)ccc4[C@H]3CC[C@]12C [Estradiol valerate] | -0.286 ± 0.73 | -0.776 ± 0.23 | 0.0679 | 0.652 | -0.928 | 0.464
CC(C)(C)c1cc(C(C)(C)C)c(NC(=O)c2c[nH]c3ccccc3c2=O)cc1O [Ivacaftor (VX-770)] | -1.29 ± 0.057 | -7.8 ± 4.6 | -0.0134 | -11.2 | -4.31 | -11.7
C[C@H]1C[C@H]2[C@@H]3CCC4=CC(=O)C=C[C@]4(C)[C@@]3(F)[C@@H](O)C[C@]2(C)[C@@]1(O)C(=O)CO [Betamethasone (Celestone)] | 1.55 ± 0.44 | -0.293 ± 0.35 | 1.41 | 1.08 | 1.97 | -0.804
CCCCCCCCCC(=O)N[C@H]1[C@H](Oc2c3cc4cc2Oc2ccc(cc2Cl)[C@@H](O[C@@H]2O[C@H](CO)[C@@H](O)[C@H](O)[C@H]2NC(C)=O)[C@@H]2NC(=O)[C@H](NC(=O)[C@@H]4NC(=O)[C@H]4NC(=O)[C@@H](Cc5ccc(c(Cl)c5)O3)NC(=O)[C@H](N)c3ccc(O)c(c3)Oc3cc(O)cc4c3)c3ccc(O)c(c3)-c3c(OC4O[C@H](CO)[C@@H](O)[C@H](O)[C@@H]4O)cc(O)cc3[C@@H](C(=O)O)NC2=O)O[C@H](CO)[C@@H](O)[C@@H]1O (some centres not stated) [Teicoplanin] | -0.194 ± 0.31 | -0.124 ± 0.66 | -0.359 | 1.47 | 0.144 | -0.177
CCN1CCC[C@H]1CNC(=O)c1cc(S(N)(=O)=O)ccc1OC [Levosulpiride (Levogastrol)] | 0.401 ± 0.57 | 0.285 ± 0.74 | 1.27 | 0.119 | 0.823 | 0.571
CC(C(=O)O)c1ccc(C(=O)c2cccs2)cc1 (configuration not stated) [Suprofen (Profenal)] | -0.193 ± 0.26 | -0.135 ± 0.58 | -0.0991 | 1.11 | -1.11 | 1.35
OC(Cn1cncn1)(Cn1cncn1)c1ccc(F)cc1F [Fluconazole] | 0.329 ± 0.83 | 0.296 ± 0.34 | 0.0658 | -0.4 | 0.629 | 0.41
COc1cc2ncnc(Nc3ccc(F)c(Cl)c3)c2cc1OCCCN1CCOCC1 [Gefitinib (Iressa)] | 0.937 ± 0.36 | -3.23 ± 4.6 | 1.31 | 0.421 | 0.568 | 0.959
CN(C/C=C/C#CC(C)(C)C)Cc1cccc2ccccc12 [Terbinafine (Lamisil, Terbinex)] | -0.0137 ± 0.071 | -0.161 ± 0.21 | -0.341 | -0.122 | 0.333 | -0.333
CN(C)[C@@H]1C(O)=C(C(=O)NCN2CCCC2)C(=O)[C@@]2(O)C(O)=C3C(=O)c4c(O)cccc4[C@@](C)(O)[C@H]3C[C@@H]12 [Rolitetracycline] | -0.186 ± 0.36 | 0.778 ± 0.14 | -1.55 | -0.579 | 0.192 | -0.118
Cc1c(-c2ccc(O)cc2)n(Cc2ccc(OCCN3CCCCCC3)cc2)c2ccc(O)cc12 [Bazedoxifene HCl] | -8.346 ± 0.057 | -9.28 ± 4.5 | -7.04 | -9.84 | -7.84 | -12.5
CN(C)[C@@H]1C(O)=C(C(N)=O)C(=O)[C@@]2(O)C(O)=C3C(=O)c4c(O)cccc4[C@@](C)(O)[C@H]3[C@H](O)[C@@H]12 [Oxytetracycline dihydrate] | 0.505 ± 1.3 | 0.555 ± 1.4 | 0.84 | 0.308 | -0.0671 | -0.522
CCC(=O)O[C@]1(C(=O)SCF)[C@H](C)C[C@H]2[C@@H]3C[C@H](F)C4=CC(=O)C=C[C@]4(C)[C@@]3(F)[C@@H](O)C[C@@]21C [Fluticasone propionate (Flonase, Veramyst)] | 0.81 ± 0.095 | 0.296 ± 0.56 | 1.01 | 0.239 | 1.22 | -0.754
CC(=O)OCC(=O)NCCCOc1cccc(CN2CCCCC2)c1 [Roxatidine acetate HCl] | -0.265 ± 2.1 | -0.3395 ± 0.003 | 0.73 | 1.42 | -0.205 | 0.0273
CN1C(=O)CCS(=O)(=O)C1c1ccc(Cl)cc1 (configuration not stated) [Chlormezanone (Trancopal)] | 0.322 ± 0.95 | -0.0767 ± 0.78 | 0.0671 | 0.111 | -0.428 | -0.251
c1ccc2c(c1)sc1ccccc12 [Dibenzothiophene] | 0.146 ± 0.056 | -0.252 ± 0.61 | -0.54 | -1.13 | 0.197 | -0.0717
CC[C@@]1(O)C(=O)OCc2c1cc1n(c2=O)Cc2cc3c(CN(C)C)c(O)ccc3nc2-1 [Topotecan HCl] | -10 ± 2.4 | -11.6 ± 10 | -7.66 | -10.5 | -9.48 | -17.2
Nc1c2c(nc3ccccc13)CCCC2 [Tacrine HCl] | -0.305 ± 0.85 | -0.234 ± 0.27 | -1.02 | -0.731 | -0.901 | -1.16
O=P1(N(CCCl)CCCl)NCCCO1 (configuration not stated) [Clafen (Cyclophosphamide)] | 0.164 ± 0.21 | -2.95 ± 4.8 | 2.34 | 1.66 | 0.26 | 0.0433
C[C@H](CCC(=O)O)[C@H]1CC[C@H]2[C@@H]3[C@H](O)C[C@@H]4C[C@H](O)CC[C@]4(C)[C@H]3CC[C@]12C [Chenodeoxycholic acid] | 0.136 ± 0.36 | 0.358 ± 0.29 | 0.987 | 0.536 | -0.327 | 0.22
CCN(CC)CCNC(=O)c1c(C)[nH]c(/C=C2\C(=O)Nc3ccc(F)cc32)c1C [Sunitinib Malate (Sutent)] | -1.22 ± 0.98 | -4.48 ± 0.76 | 0.949 | -2.02 | -2.87 | -7.12

SMILES | log2 surviving fraction (OVCAR4; [1]) | log2 surviving fraction (OVCAR4; [2]) | log2 surviving fraction (Ov4Carbo; [1]) | log2 surviving fraction (Ov4Carbo; [2]) | log2 surviving fraction (Ov4Cis; [1]) | log2 surviving fraction (Ov4Cis; [2])
CC(C)(C)C(=O)OCOP(=O)(COCCn1cnc2c(N)ncnc21)OCOC(=O)C(C)(C)C [Adefovir Dipivoxil (Preveon, Hepsera)] | -1.4 ± 0.92 | -2.37 ± 1.3 | 0.505 | 0.683 | -1.25 | -3.88
O=S(=O)(O)c1cc(O)ccc1O [Ethamsylate] | 0.433 ± 0.55 | -0.284 ± 0.26 | 1.02 | 0.223 | -0.0347 | -0.392
CCCCC1=NC2(CCCC2)C(=O)N1Cc1ccc(-c2ccccc2-c2nnn[nH]2)cc1 [Irbesartan (Avapro)] | 0.352 ± 0.47 | 0.338 ± 0.31 | 0.708 | 0.11 | 0.548 | 0.346
Cc1ccc(C)c(OCCCC(C)(C)C(=O)O)c1 [Gemfibrozil (Lopid)] | 0.236 ± 1.1 | -0.293 ± 0.24 | -0.708 | -1.44 | -0.0827 | 0.0231
Cn1c([N+](=O)[O-])cnc1COC(N)=O [Ronidazole] | 0.197 ± 0.38 | -0.053 ± 0.14 | 0.0394 | -0.335 | -0.123 | 0.421
CN1C(=O)COc2c(C(=O)NC3CN4CCC3CC4)cc(Cl)cc21 (configuration not stated) | 0.531 ± 0.89 | 0.466 ± 1.1 | -0.00686 | -0.611 | -0.105 | 0.217
Nc1nc(Cl)nc2c1ncn2[C@H]1C[C@H](O)[C@@H](CO)O1 [Cladribine] | -3.31 ± 0.44 | -4.02 ± 1.4 | -4.47 | -7.25 | -4.19 | -6.43
CCCC1O[C@@H]2C[C@H]3[C@@H]4CCC5=CC(=O)C=C[C@]5(C)[C@H]4[C@@H](O)C[C@]3(C)[C@]2(C(=O)CO)O1 (some centres not stated) [Budesonide] | 2.02 ± 0.21 | 0.102 ± 0.93 | 2.79 | 1.74 | 1.22 | -0.961
N[C@@H](Cc1cc(I)c(Oc2cc(I)c(O)c(I)c2)c(I)c1)C(=O)O [L-Thyroxine] | 0.439 ± 0.34 | -0.0215 ± 0.22 | 0.365 | -0.676 | 0.324 | 0.0763
COc1ccccc1N1CCN(CCCNc2cc(=O)n(C)c(=O)n2C)CC1 [Urapidil HCl] | -0.37 ± 0.12 | 0.0782 ± 0.8 | -0.451 | -0.126 | -0.815 | -0.491
CC1(C)S[C@@H]2[C@H](NC(=O)[C@H](NC(=O)N3CCN(S(C)(=O)=O)C3=O)c3ccccc3)C(=O)N2[C@H]1C(=O)O [Mezlocillin Sodium] | 0.169 ± 0.18 | 0.212 ± 0.58 | 0.62 | 1.06 | -0.0925 | 0.444
CC(NCCc1ccc(O)cc1)C(O)c1ccc(O)cc1 (configuration not stated) [Ritodrine hydrochloride (Yutopar)] | -0.423 ± 0.52 | -0.157 ± 0.5 | -0.249 | 0.359 | -0.41 | -0.273
Nc1cc(N2CCCCC2)nc(N)[n+]1[O-] [Minoxidil] | -0.216 ± 1 | 0.32 ± 0.27 | -0.301 | 1.13 | -0.286 | -0.158
O=C(O)/C=C/c1ccc(Cn2ccnc2)cc1 [Ozagrel HCl] | 0.881 ± 0.7 | 1.04 ± 1 | 0.146 | 0.223 | -0.966 | 0.608
CCC(COC(=O)c1cc(OC)c(OC)c(OC)c1)(c1ccccc1)N(C)C (configuration not stated) [Trimebutine] | 0.0823 ± 0.31 | -0.333 ± 0.079 | -0.042 | -0.781 | -0.0556 | 0.272
NS(=O)(=O)c1cc2c(cc1Cl)N=CNS2(=O)=O [Chlorothiazide] | 1.03 ± 0.33 | 0.801 ± 1.2 | 1.28 | -0.299 | 0.354 | 1.26
NC[C@H]1O[C@H](O[C@H]2[C@H](O)[C@@H](O[C@H]3O[C@H](CO)[C@@H](O)[C@H](N)[C@H]3O)[C@H](N)C[C@@H]2N)[C@H](N)C[C@@H]1O [Tobramycin] | -0.447 ± 0.31 | -0.00706 ± 0.088 | -0.4 | -0.518 | -1.78 | -0.0636
CC(C)(C)CC(C)(C)c1ccc(O)c(Cc2ccc(Cl)cc2Cl)c1 [Clofoctol] | 0.542 ± 0.1 | -0.707 ± 1.5 | 0.258 | 0.283 | -1.95 | -1.74
NCC(=O)CCC(=O)O [5-Aminolevulinic acid hydrochloride] | 0.343 ± 0.32 | 0.701 ± 0.11 | 0.637 | 1.43 | 0.355 | 1.18
Cc1cn([C@H]2C=C[C@@H](CO)O2)c(=O)[nH]c1=O [Stavudine] | 0.17 ± 1.3 | -0.124 ± 0.43 | 0.496 | 1.2 | -0.595 | -1.03
CCn1cc(C(=O)O)c(=O)c2ccc(C)nc21 [Nalidixic acid (NegGram)] | -0.313 ± 0.45 | -0.53 ± 0.6 | 1.16 | 0.404 | 0.365 | -0.13
C#C[C@]1(O)CC[C@H]2[C@@H]3CCc4cc(OC)ccc4[C@H]3CC[C@@]21C [Mestranol] | -0.237 ± 0.4 | -0.707 ± 0.83 | 1.09 | -0.0457 | -0.0756 | -0.948
CCCCOc1ccc(CC(=O)NO)cc1 [Bufexamac] | -2.46 ± 0.85 | -1.67 ± 0.74 | -0.02 | -0.49 | -0.849 | -1.25
